Results: the supplement of paper PMC10369915
Some of the results follow. Rule as the data show it: active = 3.2 or more and inactive = the rest. Most of these values are background signal.

Columns and labels:
Test in all cases: enrichment score (SH2-bound / input frequency) (ratio); bacterial display of known human phosphotyrosine sites (pTyr-Var adds point mutants) read by sequencing; higher = stronger binding; tyrosines were phosphorylated by kinases first
Conditions in all cases: peptide library: Human pTyr
SHP2 C-SH2 domain E139D = target: SHP2 C-SH2 domain E139D
[1] = target: SHP2 C-SH2 domain wild-type
SHP2 N-SH2 domain L43F = target: SHP2 N-SH2 domain L43F
SHP2 N-SH2 domain T42A = target: SHP2 N-SH2 domain T42A
SHP2 N-SH2 domain T52S = target: SHP2 N-SH2 domain T52S
[2] = target: SHP2 N-SH2 domain wild-type
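Also: displayed peptides selected on beads carrying the immobilized SH2 domain, with library peptides lacking any tyrosine serving as negative controls.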

Binder | enrichment score (SHP2 C-SH2 domain E139D) | enrichment score [1] | enrichment score (SHP2 N-SH2 domain L43F) | enrichment score (SHP2 N-SH2 domain T42A) | enrichment score (SHP2 N-SH2 domain T52S) | enrichment score [2]
KVKDPTEYTGPESYV [ITPR2_HUMAN_2607] | inactive: 0.798 | inactive: 0.801 | inactive: 0.934 | inactive: 0.828 | inactive: 0.908 | inactive: 0.936
GSCRSDDYMPMSPAS [IRS2_HUMAN_675] | inactive: 0.934 | inactive: 0.927 | inactive: 0.811 | inactive: 0.853 | inactive: 1.17 | inactive: 1.08
IETDKEYYTVKDDRD [JAK1_HUMAN_1035] | inactive: 1.41 | inactive: 1.48 | inactive: 1.83 | inactive: 1.1 | inactive: 1.38 | inactive: 1.18
KVKDSTEYTGPESYV [ITPR1_HUMAN_2664] | inactive: 1.11 | inactive: 0.891 | inactive: 1.34 | inactive: 0.943 | inactive: 0.85 | inactive: 1.14
AIETDKEYATVKDDR [JAK1_HUMAN_1034_YA] | inactive: 1.19 | inactive: 0.867 | inactive: 0.759 | inactive: 1.03 | inactive: 1.22 | inactive: 1.02
KVKDSTEYTGPESAV [ITPR1_HUMAN_2664_YA] | inactive: 0.938 | inactive: 0.853 | inactive: 0.978 | inactive: 0.88 | inactive: 1.07 | inactive: 0.912
GGGGGMQYLNIKEDC [JAK1_HUMAN_3] | inactive: 0.887 | inactive: 0.621 | inactive: 0.735 | inactive: 0.821 | inactive: 0.82 | inactive: 0.687
EETGTEEYMKMDLGP [IRS1_HUMAN_941] | inactive: 0.999 | inactive: 0.779 | inactive: 0.918 | inactive: 0.59 | inactive: 1.03 | inactive: 0.884
YRLSVEIYDRREYSR [ITGB7_HUMAN_753] | inactive: 1.34 | inactive: 0.936 | inactive: 0.765 | inactive: 1.39 | inactive: 0.969 | inactive: 0.793
EIADRREYSRFEKEQ [ITGB7_HUMAN_758_YA] | inactive: 1.09 | inactive: 0.761 | inactive: 0.771 | inactive: 0.718 | inactive: 0.782 | inactive: 0.936
GGGGGEFYGAMTMDR [IRS2_HUMAN_540_YA] | inactive: 0.581 | inactive: 0.557 | inactive: 0.508 | inactive: 0.502 | inactive: 0.71 | inactive: 0.624
GGGMPAQYPALTPEQ [ALDOA_HUMAN_5_YA] | inactive: 0.713 | inactive: 0.526 | inactive: 0.598 | inactive: 0.611 | inactive: 0.578 | inactive: 0.589
STFTNITYRGTGGGG [ITB3_HUMAN_785] | inactive: 0.823 | inactive: 0.653 | inactive: 0.759 | inactive: 0.635 | inactive: 0.692 | inactive: 0.864
EPKSPGEYINIDFGE [IRS2_HUMAN_919] | inactive: 1.02 | inactive: 1.1 | active: 4.31 | inactive: 3.12 | active: 3.24 | inactive: 1.15
GRKGSGDYMPMSPKS [IRS1_HUMAN_632] | inactive: 0.888 | inactive: 0.728 | inactive: 0.8 | inactive: 0.822 | inactive: 0.87 | inactive: 0.884
ARKEIADYLAAGKDE [IST1_HUMAN_43] | inactive: 0.811 | inactive: 0.893 | inactive: 0.654 | inactive: 0.764 | inactive: 0.702 | inactive: 0.756
EFEAGSEYSDRLPLG [ISLR2_HUMAN_719] | inactive: 0.627 | inactive: 0.454 | inactive: 0.595 | inactive: 0.485 | inactive: 0.524 | inactive: 0.599
AIETDKEYYTVKDDR [JAK1_HUMAN_1034] | inactive: 1.22 | inactive: 1.28 | inactive: 1.12 | inactive: 0.917 | inactive: 1.07 | inactive: 1.53
